Measured values reported in the supplement of paper PMC8291772.
± gives the standard error. The list shows a part of the results.

Each sequence was assayed against terminal deoxynucleotidyl transferase (calf thymus) (UniProt P06526) (assay: TdT poly-dT extension signal (Cy3 hybridisation fluorescence, uncapped minus capped) (fluorescence a.u.); higher = more efficient initiation of TdT extension). Conditions: initiator chemistry: 2'-O-methyl-RNA, free 3'-OH (5'-tethered via HEG linker).
Method in brief: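 Mono- to pentamer initiators were made by photolithographic in situ synthesis on glass on a hexaethylene glycol linker, each as uncapped and DMTr-dT-capped replicates. Arrays were extended with 0.2 u/μL calf thymus TdT and 100 μM dTTP in TdT buffer plus 0.25 mM CoCl2 at 37 °C for 120 min, hybridized with Cy3-labelled rA18 probe at 4 °C and scanned at 532 nm. Extension signal is mean uncapped minus mean capped (background) fluorescence.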

UniProt P06526, sequence (P06526 whole entry): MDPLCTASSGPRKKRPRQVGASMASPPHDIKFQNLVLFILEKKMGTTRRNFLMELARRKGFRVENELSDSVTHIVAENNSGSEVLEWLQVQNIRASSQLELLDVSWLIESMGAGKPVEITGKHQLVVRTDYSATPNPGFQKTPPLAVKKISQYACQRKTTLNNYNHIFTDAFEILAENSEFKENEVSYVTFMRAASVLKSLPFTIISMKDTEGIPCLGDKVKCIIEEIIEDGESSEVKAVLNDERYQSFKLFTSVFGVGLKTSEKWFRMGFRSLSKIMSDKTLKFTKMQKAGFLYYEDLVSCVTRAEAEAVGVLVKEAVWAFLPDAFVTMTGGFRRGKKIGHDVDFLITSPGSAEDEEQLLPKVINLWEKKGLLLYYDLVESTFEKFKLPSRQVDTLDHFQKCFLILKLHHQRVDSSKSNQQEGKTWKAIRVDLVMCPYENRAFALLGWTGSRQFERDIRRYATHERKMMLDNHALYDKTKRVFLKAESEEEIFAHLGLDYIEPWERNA

| Sequence | TdT poly-dT extension signal |
| --- | --- |
| AUGGU | 350 ± 22 |
| GUAAG | 384 ± 44 |
| UAGU | 371 ± 23 |
| AUGG | 234 ± 16 |
| AGCAG | 367 ± 45 |
| ACGGA | 530 ± 42 |
| UUUUG | 223 ± 23 |
| ACGGG | 293 ± 26 |
| UUAGU | 397 ± 31 |
| GCAUA | 576 ± 50 |
| GGCA | 358 ± 25 |
| AGAAC | 740 ± 50 |
| CGUCU | 274 ± 12 |
| CAGUC | 521 ± 42 |
| UUCU | 214 ± 22 |
| AGUUU | 220 ± 20 |
| GGAA | 722 ± 48 |
| AAAU | 568 ± 46 |
| CUGUU | 246 ± 15 |
| CCAUG | 257 ± 42 |
| CCGCU | 380 ± 47 |
| AGUG | 231 ± 23 |
| UAAA | 764 ± 51 |
| CUAGA | 687 ± 74 |
| GAGUU | 316 ± 36 |
| GUUCG | 182 ± 20 |
| GGUGA | 618 ± 42 |
| AGUGU | 415 ± 56 |
| UUAAC | 532 ± 28 |
